The record followed here is PubChem BioAssay AID1508623 (National Center for Advancing Translational Sciences (NCATS), 2021).

In all, about 48,000 compounds went through this assay and about 450 (0.94%) were called active. Inconclusive results (about 19%) are left out. Calls come from the whole dose curve; as a rule, active = well fitted inhibition curve with a large enough effect; inconclusive = small, poorly fitted or top-dose-only effect; inactive = no such curve, though single readings can be large or run the other way. The list shows a part of the results.
Potency is the fitted concentration of half-maximal effect.

The nature of the assay: Primary qHTS for Identification of Small Molecule Inhibitors of Huntingtin Promoter Activity. Note: nearly all actives have a fitted effect of over 50% in size. The note with it: HEK293 HTT promoter firefly luciferase reporter (activity 0% = vehicle and -100% = no light), 24 h; series mostly up to 57.5 µM; activity change, negative = inhibition: at the top concentration. The gist of the method: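 Quantitative HTS used concentration series of up to 57.5 uM final on HEK293 luciferase reporter cells, 24 h at 37 degrees C. Readout was Dual-Glo firefly luminescence.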
(In general: In qHTS, concentration-response curves come from the screen itself.)
With `CCOc1ccc(NC(=O)c2oc3ccccc3c2NC(=O)Cc2cccs2)cc1`, the “activity change, negative = inhibition” value is inactive: 1.54%.

On to `CCN1CCN(C(=O)c2ccc3c(c2)N(Cc2ccc(Cl)cc2)C(=O)c2ccccc2S3=O)CC1` (stereo not drawn), for which the “activity change, negative = inhibition” value was inactive: -20%.

As for `CCc1ccc(Cn2c(CNS(=O)(=O)c3ccc4c(c3)CCCC4)nc3cccnc32)cc1`, the “activity change, negative = inhibition” value was inactive: -6.22%.

As for `CCc1ccc2c(c1)c(=O)c(C(=O)c1ccccc1)cn2CC(=O)Nc1ccc(C)c(Cl)c1`, the “activity change, negative = inhibition” value was inactive: -10%.

`CCc1ccc2c(c1)c(=O)c(C(=O)c1ccc(C)cc1)cn2CC(=O)Nc1ccccc1C`: the “activity change, negative = inhibition” value is inactive: -17.7%.

Regarding `COc1ccc(-c2nnc(SCC(=O)NCCc3ccccc3)nc2-c2ccc(OC)cc2)cc1`, the “activity change, negative = inhibition” value is inactive: 8.81%.

As to `Cc1cccc(C)c1OCC(=O)Nc1c(C(=O)c2ccccc2)oc2ccccc12`, the “activity change, negative = inhibition” value was inactive: -6.53%.

Take `COc1ccc(-c2c(C)nn3c(-c4ccccc4)cc(-c4ccccc4)nc23)cc1`: the “activity change, negative = inhibition” value is inactive: -13.1%.

As to `Cc1ccc(NC(=O)CSc2nc3nccnc3c(=O)n2CCc2c[nH]c3ccccc23)c(C)c1`, the “activity change, negative = inhibition” value was inactive: -13.8%.

For the molecule `Cc1ccc(C)c(N2CCN(C(=O)c3cccn4c(=O)c5ccccc5nc34)CC2)c1`, the “activity change, negative = inhibition” value was inactive: -20.3%.

Take `CC(C)C[C@@H](N)C(=O)O`: the “activity change, negative = inhibition” value was inactive: -3.86% [at 25.2 µM].

With `CCCCOC(=O)c1ccc(NC(=O)c2cc(=O)c3ccccc3o2)cc1`, the “activity change, negative = inhibition” value is inactive: -16.8%.

For `O=C(O)CCCn1cc(NC(=O)COc2ccccc2F)cn1`, the “activity change, negative = inhibition” value is inactive: -18.6%.

`CCc1ccc(C(=O)c2cn(CC(=O)Nc3ccc(OC)cc3)c3cc4c(cc3c2=O)OCCO4)cc1`: the “activity change, negative = inhibition” value was inactive: -10.2%.

Consider `Cc1ccc(OCCSc2nc3ccccc3n2CC(=O)NC(C)C)cc1`, for which the “activity change, negative = inhibition” value is inactive: -15.9%.

In the case of `O=C(CSc1ncc2c(n1)-c1cc(Cl)ccc1N(Cc1ccccc1)S2(=O)=O)NCc1ccccc1`, the “activity change, negative = inhibition” value is inactive: -18.6%.

With `Cc1ccc(-c2nnn3c2nc(N2CCC(C)CC2)c2ccccc23)cc1`, the “activity change, negative = inhibition” value is inactive: 2.59%.

Take `Fc1ccc(Nc2c(-c3c[nH]c4ccccc34)nc3ccccn23)cc1`: the “activity change, negative = inhibition” value was inactive: 17.2%.

With `Cc1ccc(C(=O)Nc2nnc(S(=O)(=O)N3CCCc4ccccc43)s2)cc1`, the “activity change, negative = inhibition” value is inactive: 11.8%.

With `COc1ccc(CCNC(=O)c2ccc(CSCc3ccc(C)cc3)o2)cc1OC`, the Potency is active: 25.1 µM.

As for `COc1ccc(C(=O)Nc2ccc3nc(N4CCCCC4)cc(C)c3c2)cc1OC`, the “activity change, negative = inhibition” value is inactive: -17.8%.

On to `Cc1cccc(CSc2ccc3nnc(CCNS(=O)(=O)c4ccccc4)n3n2)c1`, for which the “activity change, negative = inhibition” value was inactive: -26.8%.

Turning to `O=S(=O)(c1ccc(Cl)cc1)N1CCC(c2ccncc2)CC1`, the “activity change, negative = inhibition” value is inactive: -7.46%.

Take `O=C(Nc1nnc(S(=O)(=O)N2CCOCC2)s1)c1cccc(Br)c1`: the “activity change, negative = inhibition” value was inactive: -14.4%.

On to `Cc1nc2c(C(=O)NCCc3ccccc3)c[nH]n2c(=O)c1Cc1ccccc1F`, for which the “activity change, negative = inhibition” value was inactive: -9.32%.

In the case of `COc1cccc(C(=O)Nc2ccc(C(=O)OCc3cc(=O)n4cc(C)sc4n3)cc2)c1`, the “activity change, negative = inhibition” value is inactive: 18.3%.

`COc1cc(NS(=O)(=O)c2cc3c(cc2C)n(C)c(=O)c(=O)n3C)cc(OC)c1`: the “activity change, negative = inhibition” value was inactive: -3.21%.

`COc1cc(NC(=O)NCCn2nnc3cc(S(=O)(=O)N(C)C)ccc32)cc(OC)c1OC`: the “activity change, negative = inhibition” value was inactive: -8%.

`COc1cc(NC(=O)c2cc3cc4ccc(OC)c(Cl)c4nc3s2)cc(OC)c1`: the “activity change, negative = inhibition” value is inactive: -4.1%.

For `CCC(Sc1ccc2nnc(CCNS(=O)(=O)c3ccc(OC)cc3)n2n1)C(=O)OC` (stereo not drawn), the “activity change, negative = inhibition” value is inactive: -1.67%.

Turning to `Cc1ccccc1C(=O)NC1(C(F)(F)F)C(=O)Nc2c1c(=O)[nH]c(=O)n2CCc1ccccc1` (stereo not drawn), the “activity change, negative = inhibition” value was inactive: -4.36%.

On to `COc1ccc(-c2nc3c4ccccc4n(CC(=O)Nc4ccc(C(C)=O)cc4)c(=O)n3n2)cc1`, for which the “activity change, negative = inhibition” value is inactive: 10.3%.

For the molecule `Cc1nc2ccc(S(=O)(=O)NCC(=O)Nc3ccc(C)c(Cl)c3)cc2s1`, the “activity change, negative = inhibition” value was inactive: -11.8%.

In the case of `Cc1cc(C)cc(NC(=O)CSc2nc3c(cnn3-c3ccc(F)cc3)c(=O)[nH]2)c1`, the “activity change, negative = inhibition” value was inactive: -11.4%.

Turning to `O=C(NC1CCCCCC1)C1CCN(C(=O)N2CCOc3ccc(Cl)cc32)CC1`, the “activity change, negative = inhibition” value was inactive: -17%.

In the case of `CCCCc1nn2c(=O)cc(COC(=O)c3cccc(NC(=O)COc4ccccc4)c3)nc2s1`, the “activity change, negative = inhibition” value was inactive: 19.9%.

For `Cc1ccc(C2=NN(CC(=O)NCCCN(CC(C)C)CC(C)C)C(=O)CC2)cc1`, the “activity change, negative = inhibition” value was inactive: -1.51%.

For `Cc1cc2[nH]c(=O)c(=O)[nH]c2cc1S(=O)(=O)NCc1ccc(F)cc1`, the “activity change, negative = inhibition” value was inactive: -0.464%.

On to `CCOCCCNC(=O)c1ccc2c(c1)NC(=O)C(CS(=O)(=O)Cc1ccc(F)cc1Cl)N2` (stereo not drawn), for which the “activity change, negative = inhibition” value was inactive: -20%.

Take `Cc1cc(C)n(-c2nc3ccccc3nc2Nc2ccc(C(C)C)cc2)n1`: the “activity change, negative = inhibition” value is inactive: 3.12%.

With `CCN(CCCNC(=O)CSc1cc(=O)n(C)c2ccccc12)c1ccccc1`, the “activity change, negative = inhibition” value was inactive: -12.9%.

Turning to `CCOc1cccc(NC(=O)C2CC(=O)N(C)C(=Nc3cccc(OC)c3)S2)c1` (stereo not drawn), the “activity change, negative = inhibition” value is inactive: -25.4%.

For `CCC(=O)OCC(=O)[C@@]1(OC(=O)CC)[C@@H](C)C[C@@H]2[C@H]3CCC4=CC(=O)C=C[C@]4(C)[C@@]3(F)[C@@H](O)C[C@@]21C`, the “activity change, negative = inhibition” value was inactive: -12.8%.

For `Cc1cc(C)c(NC(=O)C(C)n2c(=O)cc(C)c3c(C)nn(-c4ccccc4)c32)c(C)c1` (stereo not drawn), the “activity change, negative = inhibition” value was inactive: 5.52%.

Turning to `CC(=O)N1CCc2c(sc3c2c(=O)n(-c2ccccc2)c(=O)n3CC(=O)c2ccc(Cl)cc2)C1`, the “activity change, negative = inhibition” value is inactive: -5.93%.

Consider `O=C(NCc1cccc(F)c1)C1CCN(c2nc3ccccc3nc2C(F)(F)F)CC1`, for which the “activity change, negative = inhibition” value is inactive: 4.64%.

Consider `COCCNC(=O)CCn1c(=O)c2cc(OC)c(OC)cc2n(CC(=O)Nc2ccc(F)c(Cl)c2)c1=O`, for which the “activity change, negative = inhibition” value was inactive: -23%.

Regarding `Cc1cc(C)c(NC(=O)Cn2c(=O)n(-c3cccc(C(F)(F)F)c3)c(=O)c3c(C)c(C)sc32)c(C)c1`, the “activity change, negative = inhibition” value is inactive: -8.4%.
